Test results published in PubChem BioAssay AID2101 (National Center for Advancing Translational Sciences (NCATS), 2009).
Out of some 330,000 compounds screened, about 300 (0.091%) were called active. This list was built around the results that the source calls inconclusive (neither active nor inactive); the mix of calls is not that of the screen. Calls follow the shape of the dose curve; as a rule, active = well fitted inhibition curve with a large enough effect; inconclusive = small, poorly fitted or top-dose-only effect, or effect the other way, or another doubt; inactive = no such curve, though single readings can be large or run the other way. No potency is given beside an inconclusive call; the fits are too rough.

These compounds were tested against Lysosomal acid glucosylceramidase (Homo sapiens) (UniProt P04062) (assay: qHTS Assay for Inhibitors and Activators of N370S glucocerebrosidase as a Potential Chaperone Treatment of Gaucher Disease). Settings: N370S GC spleen homogenate, 4MU-glucoside fluorescence; activity change, negative = inhibition: at 59.4 µM (top of the series) unless noted.
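For activity change, negative = inhibition in this document: 0% = full enzyme activity and -100% = no enzyme basal.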
Potency is read from the fitted curve at half-maximal effect.

Row | SMILES | Potency | activity change, negative = inhibition
1 | Cc1cccc(NC(=S)NC(=O)C2CC2)c1 | inactive | –
2 | C=CCn1c(SCc2c(C)noc2C)nc2sc(C)c(C)c2c1=O | inconclusive [activator, single point] | –
3 | COc1cc(SC)ccc1C(=O)Nc1nc2ccccc2[nH]1 | inconclusive [activator, single point] | –
4 | COc1cc(C2Nc3ccccc3C(=O)N2c2ccc3c(c2)OCCO3)ccc1OCC(C)C (stereo not given) | inconclusive [activator, partial curve, poor fit] | –
5 | COc1ccc(-c2cn3c(C)c(C(=O)NCCN4CCOCC4)sc3n2)cc1 | inactive | –
6 | N#C/C(=C\c1c(N2CCCCC2)nc2ccccn2c1=O)S(=O)(=O)c1ccccc1 | inconclusive [activator, full curve] | –
7 | COc1ccc(NC(=O)COC(=O)[C@@H]2CCCN2S(=O)(=O)c2ccccc2F)c(OC)c1 | inconclusive [activator, partial curve] | –
8 | Cc1c(NC2=C(Cl)C(=O)N(c3ccccc3)C2=O)c(=O)n(-c2ccccc2)n1C | inactive | –
9 | COc1ccc(CNc2nc(-c3cccnc3)nn2C(=O)CC(C)C)cc1 | inconclusive [activator, single point] | –
10 | CCc1ccc(NC(=O)c2cnc3scc(C)n3c2=O)cc1 | inconclusive [activator, partial curve, poor fit] | –
11 | CCN1C(=O)c2ccccc2Sc2ccc(C(=O)NCCCN3CCOCC3)cc21 | inactive | –
12 | Cc1nnc(-c2ccc(N3CCCCCC3)c([N+](=O)[O-])c2)o1 | inactive | –
13 | CCCn1c(=O)c2ccccc2n2c(SCC(=O)c3ccc(CC)cc3)nnc12 | inconclusive [inhibitor, full curve, poor fit] | –
14 | NC(=O)N/N=C/C=C/c1ccccc1 | inconclusive [inhibitor, full curve, poor fit] | –
15 | Cc1ccc(NC(=O)C(OC(=O)c2ccccc2Cl)c2ccccc2)cc1Cl (stereo not given) | inconclusive [activator, single point] | –
16 | CC(=O)C[C@H](c1ccccc1)c1c(O)c2ccccc2oc1=O | inactive | –
17 | Clc1cccc(-c2nc(NCc3cccnc3)c3ccccc3n2)c1 | inconclusive [inhibitor, partial curve, poor fit] | –
18 | Cc1nnsc1C(=O)NNc1ccc(C(C)C)cc1 | inactive | –
19 | C/C=C/Cn1c(SCCCc2ccccc2)nc2c1c(=O)[nH]c(=O)n2C | inconclusive [activator, partial curve] | –
20 | CCOc1cc(CN2CCN(c3ccc(C(C)=O)cc3)CC2)ccc1OC | inactive | –
21 | COc1ccc(CCn2nnnc2C(c2ccc(C)cc2)N2CCN(C)CC2)cc1OC (stereo not given) | inconclusive [inhibitor, single point] | –
22 | Cc1ccc(NC(=S)N2CCC(c3ccccc3)C2)c(Cl)c1 (stereo not given) | inconclusive [activator, partial curve] | –

Row | SMILES | Potency | activity change, negative = inhibition
23 | Cc1c(Nc2cc(Cl)c3nonc3c2[N+](=O)[O-])c(=O)n(-c2ccccc2)n1C | inactive | –
24 | Cc1csc(NC(=O)CSc2nnc(-c3ccoc3C)o2)n1 | inactive | –
25 | O=C(COC(=O)CCc1nc2ccccc2s1)Nc1ccc(S(=O)(=O)N2CCOCC2)cc1 | inconclusive [inhibitor, single point] | –
26 | O=C(OC1CCCCC1)c1cc2ccccc2oc1=O | inconclusive [activator, single point] | –
27 | CC(=O)c1ccc(S(=O)(=O)Nc2ccc(C(=O)NCC(c3cccs3)N3CCOCC3)cc2)cc1 (stereo not given) | inconclusive [inhibitor, partial curve] | –
28 | O=C(Nc1ccc(-c2nc3ccccc3o2)cc1)c1ccc2c(c1)OCO2 | inactive | –
29 | O=C(NCCc1ccccc1F)N[C@@H](Cc1ccccc1)C(=O)O | inconclusive [inhibitor, partial curve] | –
30 | Cc1nc2nc(-c3ccccc3)cn2nc1C | inconclusive [activator, single point] | –
31 | COc1ccc(OC)c2c1sc(=NC(=O)C1CC1)n2C | inconclusive [activator, partial curve] | –
32 | COc1ccc2c(C)cc(SCC(=O)Nc3nsc(-c4ccc(C)cc4)n3)nc2c1 | inconclusive [activator, partial curve] | –
33 | Nc1ccc(-c2nc3ncccc3o2)c(O)c1 | inactive | –
34 | O=C(Nc1cccc(F)c1)c1ccc(-c2ccccc2C(F)(F)F)o1 | inconclusive [activator, single point] | –
35 | Cc1ccc(Oc2ccc(NC(=O)Cn3ccsc3=N)cc2)cc1 | inconclusive [inhibitor, partial curve] | –
36 | O=C(CSC1=NCCN1)NC12CC3CC(CC(C3)C1)C2 | inconclusive [inhibitor, single point] | –
37 | C[C@@H]1O[C@@H](O[C@@H]2[C@@H](O)[C@H](OCCc3ccc(O)c(O)c3)O[C@H](CO[C@@H]3O[C@H](CO)[C@@H](O)[C@H](O)[C@H]3O)[C@H]2OC(=O)/C=C/c2ccc(O)c(O)c2)[C@H](O)[C@H](O)[C@H]1O | inactive | –
38 | O=C1CCN(CCc2ccccc2)CCN1[C@H](CO)c1ccccc1 | inconclusive [inhibitor, full curve, poor fit] | –
39 | CCN1C(=O)C2(/C(=C(\O)c3ccc4c(c3)OCCO4)C(=O)C(=O)N2CCCOC)c2ccccc21 (stereo not given) | inconclusive [inhibitor, partial curve] | –
40 | Cc1cc2[nH]c(=O)c(=O)[nH]c2cc1S(=O)(=O)N1CCN(c2cccc(C)c2C)CC1 | inconclusive [inhibitor, partial curve] | –
41 | N#Cc1c(C(F)(F)F)cc(-c2ccccc2)[nH]c1=O | inconclusive [activator, partial curve] | –
42 | CCCC(=O)C1=C(O)C(C(=O)OC)C(C)(C)CC1=Nc1ccc(Br)cc1 (stereo not given) | inconclusive [activator, partial curve, poor fit] | –
43 | CCc1nc2oc(C(=O)c3ccccc3)c(N)c2c2c1COC(C)(C)C2 | inconclusive [activator, partial curve] | –
44 | COc1ccc(C2C(C#N)=C(N)N(c3sc4c(c3C#N)CCCC4)C3=C2C(=O)CC(C)(C)C3)cc1 (stereo not given) | inconclusive [activator, full curve, poor fit] | –

Row | SMILES | Potency | activity change, negative = inhibition
45 | C[C@@H]1C[C@@H]2OC(=O)[C@]3(C)[C@H]2[C@@H](OC3(C)O)[C@]2(C)C(=O)C=C[C@H]12 (stereo not given in full) | – | inconclusive: 25.7% [activator]
46 | CC(C)(C)c1ccc(OCc2ccc(C(=O)Nc3cccnc3)o2)cc1 | inconclusive [inhibitor, partial curve] | –
47 | COc1cccc(C(=O)Nc2ccc3nc(N4CCN(c5ncccn5)CC4)cc(C)c3c2)c1OC | inconclusive [inhibitor, partial curve] | –
48 | CCOc1ccc(/C=C/C(=O)c2cc(Br)ccc(=O)c2O)cc1 | inconclusive [inhibitor, partial curve, poor fit] | –
49 | Nc1nc(Cl)cc(Sc2ccc(F)cc2)n1 | inactive | –
50 | N#Cc1c(N)nc2c(c1N)CC(COc1ccccc1)O2 (stereo not given) | inactive | –
51 | COc1ccc(OC)c(/C=N/NC(=O)C(O)c2ccccc2)c1 (stereo not given) | inconclusive [activator, partial curve] | –
52 | O=C(Nc1ccccc1N1CCCCC1)c1ccc2nccnc2c1 | inconclusive [activator, partial curve] | –
53 | O=S(=O)(c1cccc(NC(=S)NCc2ccco2)c1)N1CCOCC1 | inconclusive [inhibitor, full curve, poor fit] | –
54 | CN(C)CCCN(C(=O)c1ccc(C(=O)c2ccccc2)cc1)c1nc2ccc(F)cc2s1 | inconclusive [inhibitor, partial curve] | –
55 | O=C(CSCc1ccc(Cl)cc1)N1CCN(Cc2ccc3c(c2)OCO3)CC1 | inconclusive [inhibitor, partial curve] | –
56 | Cc1cc(-c2ccc(N=Nc3cc(S(=O)(=O)O)c4ccccc4c3N)c(C)c2)ccc1N=Nc1cc(S(=O)(=O)O)c2ccccc2c1N | inconclusive [inhibitor, single point] | –
57 | CCN(CC)C(=O)CSc1nc2c(sc(=S)n2-c2ccccc2)c(=O)n1-c1ccccc1OC | inconclusive [inhibitor, partial curve, poor fit] | –
58 | COc1ccc(CNc2oc(-c3cccc4ccccc34)nc2C#N)cc1 | inconclusive [activator, partial curve] | –
59 | Cc1ccc(-c2[nH]nc(N)c2N=Nc2cccc(Cl)c2C)cc1 | inconclusive [inhibitor, full curve, poor fit] | –
60 | Cc1cc(C)nc(Nc2ccccc2Br)n1 | inactive | –
61 | Cn1ccsc1=NC(=O)c1ccc(S(=O)(=O)C(F)F)cc1 | inactive | –
62 | COc1ccc(S(=O)(=O)Nc2cc3c(C(C)=O)c(C)oc3c3ccccc23)cc1 | inconclusive [activator, full curve, poor fit] | –
63 | CC(C)=CCc1c(O)c(CC=C(C)C)c2occ(-c3ccc(O)cc3)c(=O)c2c1O | inconclusive [inhibitor, partial curve] | –
64 | COc1ccccc1-n1c(CNC(=O)c2cccs2)n[nH]c1=S | inconclusive [inhibitor, single point] | –
65 | Cc1cc(-n2nc(C)cc2C)nc(NS(=O)(=O)c2ccccc2Cl)n1 | inconclusive [activator, partial curve] | –
